pIC50, pKi: −log10 of the molar value.
Legend:
Human PKC epsilon = target: T1, Human PKC epsilon (Homo sapiens, UniProt Q02156); experiment: In vitro PKC inhibition, PKC epsilon; assay type: biochemical
T1 sequence (Q02156 1-737): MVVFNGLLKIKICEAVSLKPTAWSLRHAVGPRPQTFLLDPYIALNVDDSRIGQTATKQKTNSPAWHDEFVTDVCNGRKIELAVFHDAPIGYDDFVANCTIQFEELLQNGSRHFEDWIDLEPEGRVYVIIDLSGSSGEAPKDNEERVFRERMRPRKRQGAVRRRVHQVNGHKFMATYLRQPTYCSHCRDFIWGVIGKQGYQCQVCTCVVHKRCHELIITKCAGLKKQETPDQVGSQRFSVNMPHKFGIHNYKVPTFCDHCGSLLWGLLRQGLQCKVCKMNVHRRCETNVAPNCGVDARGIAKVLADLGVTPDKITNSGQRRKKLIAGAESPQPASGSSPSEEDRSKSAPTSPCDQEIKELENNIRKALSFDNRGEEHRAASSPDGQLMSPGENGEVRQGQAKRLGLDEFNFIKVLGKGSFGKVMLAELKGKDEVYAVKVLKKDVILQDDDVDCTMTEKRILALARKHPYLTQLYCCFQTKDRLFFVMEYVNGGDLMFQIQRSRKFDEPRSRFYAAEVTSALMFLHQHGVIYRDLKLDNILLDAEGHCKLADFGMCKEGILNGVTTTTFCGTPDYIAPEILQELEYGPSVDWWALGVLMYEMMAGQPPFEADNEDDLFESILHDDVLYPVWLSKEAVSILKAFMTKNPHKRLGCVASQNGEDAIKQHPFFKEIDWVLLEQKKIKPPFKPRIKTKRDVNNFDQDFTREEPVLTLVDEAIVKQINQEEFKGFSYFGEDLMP
From the text: (§1) The methods for these determinations have been described (Grant, et al. 2010, Eur J Pharmacol. 627:16-25).

Human PRKCN (PKD3) = target: T2, Human PRKCN (PKD3) (Homo sapiens, UniProt O94806); experiment: In vitro inhibition, PRKCN (PKD3); assay type: biochemical
T2 sequence (O94806 1-890): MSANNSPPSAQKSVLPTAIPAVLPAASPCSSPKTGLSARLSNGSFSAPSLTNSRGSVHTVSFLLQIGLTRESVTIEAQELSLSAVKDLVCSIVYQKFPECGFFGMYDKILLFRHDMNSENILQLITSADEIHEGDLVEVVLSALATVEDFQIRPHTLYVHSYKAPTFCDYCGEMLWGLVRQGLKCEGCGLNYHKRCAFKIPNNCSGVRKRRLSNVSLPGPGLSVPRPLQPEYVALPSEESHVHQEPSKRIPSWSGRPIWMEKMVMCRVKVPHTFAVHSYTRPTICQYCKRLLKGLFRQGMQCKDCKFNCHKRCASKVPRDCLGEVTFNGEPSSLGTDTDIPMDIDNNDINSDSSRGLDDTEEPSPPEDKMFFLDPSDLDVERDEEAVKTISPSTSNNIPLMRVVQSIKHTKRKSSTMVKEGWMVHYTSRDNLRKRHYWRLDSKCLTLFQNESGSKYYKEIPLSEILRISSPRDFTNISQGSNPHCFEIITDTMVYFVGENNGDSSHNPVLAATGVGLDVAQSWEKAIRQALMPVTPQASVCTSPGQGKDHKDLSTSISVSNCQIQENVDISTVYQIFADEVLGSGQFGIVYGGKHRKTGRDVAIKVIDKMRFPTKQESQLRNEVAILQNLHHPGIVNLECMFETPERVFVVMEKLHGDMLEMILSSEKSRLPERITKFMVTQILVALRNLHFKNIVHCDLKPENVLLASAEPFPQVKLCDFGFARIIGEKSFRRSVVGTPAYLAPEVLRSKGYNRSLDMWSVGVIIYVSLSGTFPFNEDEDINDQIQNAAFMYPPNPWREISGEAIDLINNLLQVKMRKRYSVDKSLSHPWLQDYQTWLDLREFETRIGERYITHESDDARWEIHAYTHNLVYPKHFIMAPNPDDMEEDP
From the text: as §1

Human PKC zeta = target: T3, Human PKC zeta (Homo sapiens, UniProt Q05513); experiment: In vitro PKC inhibition, PKC zeta; assay type: biochemical
T3 sequence (Q05513 1-592): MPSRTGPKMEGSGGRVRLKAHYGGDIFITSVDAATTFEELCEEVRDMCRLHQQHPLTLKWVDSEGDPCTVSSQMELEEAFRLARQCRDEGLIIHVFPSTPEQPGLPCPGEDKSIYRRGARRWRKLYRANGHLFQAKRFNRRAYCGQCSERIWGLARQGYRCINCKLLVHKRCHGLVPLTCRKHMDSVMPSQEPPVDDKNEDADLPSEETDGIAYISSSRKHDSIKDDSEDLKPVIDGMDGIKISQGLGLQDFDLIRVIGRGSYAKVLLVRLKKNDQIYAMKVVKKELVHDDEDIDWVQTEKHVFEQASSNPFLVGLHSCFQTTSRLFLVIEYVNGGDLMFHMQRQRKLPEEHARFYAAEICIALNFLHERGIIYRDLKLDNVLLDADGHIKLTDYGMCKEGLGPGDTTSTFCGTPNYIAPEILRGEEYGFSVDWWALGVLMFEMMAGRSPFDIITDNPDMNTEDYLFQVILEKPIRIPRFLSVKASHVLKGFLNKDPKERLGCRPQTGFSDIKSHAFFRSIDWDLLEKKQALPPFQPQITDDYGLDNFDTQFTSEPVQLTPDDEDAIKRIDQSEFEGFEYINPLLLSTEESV
From the text: as §1

Human PKC eta = Human PKC eta (Homo sapiens, UniProt P24723); experiment: In vitro PKC inhibition, PKC eta; assay type: biochemical
From the text: as §1

Human PKC theta = Human PKC theta (Homo sapiens, UniProt Q04759); experiment: In vitro PKC inhibition, PKC theta; assay type: biochemical
From the text: as §1

[1] = system: experimental autoimmune uveitis; experiment: Lewis rat model of experimental autoimmune uveitis; assay type: in vivo
Method: The animal model used in this testing was the Lewis rat model of experimental autoimmune uveitis, a well-known model of uveitis (Nussenblatt R B, et al, 1981, J Clin Invest. 67(4): 1228-1231; Mochizuki M, et al, 1985, Invest Ophthalmol Vis Sci. 26(2): 226-232). Compound A was prepared as an oral suspension and dosed orally, once per day at two doses, 10 and 20 mg/kg. The efficacy was compared to animals that received the positive control cyclosporine dosed at 25 mg/kg. […] Efficacy in the model was assessed by clinical grading and by assessment of the sections of the eyes prepared for histology at the completion of the experiment.

[2] = system: MRL/lpr mouse model of lupus; experiment: MRL/lpr mouse model of lupus; assay type: in vivo, mice
Human PKC alpha = Human PKC alpha (Homo sapiens, UniProt P17252); experiment: In vitro PKC inhibition, PKC alpha; assay type: biochemical
[3] = 10 and 20 mg/kg orally, once per day
[4] = very modest doses (10 and 20 mg/kg orally, once per day)
[5] = both doses, oral suspension BID, 12 weeks (final 180 and 240 mg/kg/day)

SMILES: Cc1ncc(F)c(Nc2n[nH]c3c2CN(C(=O)N2C[C@@H](C)N(CC4CCOCC4)C[C@@H]2C)C3(C)C)n1 [Compound A, 5-{[(2S,5R)-2,5-Dimethyl-4-(tetrahydro-2H-pyran-4-ylmethyl)piperazin-1-yl]carbonyl}-N-(5-fluoro-2-methylpyrimidin-4-yl)-6,6-dimethyl-1,4,5,6-tetrahydropyrrolo[3,4-c]pyrazol-3-amine]
- pIC50 (Human PKC epsilon): 6.09
- pIC50 (Human PRKCN (PKD3)): 6.88
- pIC50 (Human PKC zeta): < 6.00
- pIC50 (Human PKC eta): < 6.00
- pIC50 (Human PKC theta): 7.59
- disease severity by clinical score (FIG. 6) [1, 3]: dose dependent decrease
- disease severity by histopathological score (FIG. 7) [1, 3]: dose dependent decrease
- reduction in clinical scores [1, 4]: greater than 50%
- reduction in histopathological scores [1, 4]: greater than 75%
- blood urea nitrogen (BUN) values (in words) ([2]; across the two doses, statistically significant at the higher dose): dose-dependent reduction
- lymphadenopathy score (FIG. 2) [2, 5]: reduction
- mean absolute spleen weight (FIG. 3) [2, 5]: reduction
- mean lymph node weight (FIG. 4) [2, 5]: reduction
- protein in the urine (FIG. 1) [2, 5]: significant reduction
- animals found to have a BUN≤33 mg/dL (normal range for the mouse) ([2]; two treatment groups together, 21/23 animals, control 2/11 (18%)): 91%
- pIC50 (Human PKC alpha): 8.64
- pKi (Human PKC alpha; recombinant PKC alpha): 7.98

From US9980965B2, “Treatment of autoimmune disease” (MingSight Pharmaceuticals, Inc., priority 2014, dated 2018)
